From the supplement of paper PMC4967469
By IC50 is meant the dose at which the fit gives 50% viability; a fit beyond the top or the lowest dose is shown as a bound at that dose. AUC, from the same fit, is the share of area under the viability curve across the 256-fold dose range; the more sensitive the line, the further below 1. For some of these results: The top dose, if marked as inferred, was derived from the fitted curves, not read from the paper. For some of these results: Drugs with an entry number were screened twice under separate entries, and the two screens often disagree.

Assays:
Assay in all cases: Viability of human cancer cell lines after 72 h of drug (GDSC screen)
[1] = compound: O=c1cc(-c2cccc3c2Sc2ccccc2S3)oc(N2CCOCC2)c1 [KU-55933]; details: top dose 10 µM
Protocol: (§1)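 Human cancer cell lines in 384-well plates, medium with 10% serum, drug for 72 h over a 256-fold dose range (nine 2-fold or five 4-fold steps up to the top dose). Adherent lines were fixed and stained with the nucleic acid dye Syto60, suspension lines read with resazurin; signal relative to control wells, capped at 0 and 100%. One two-parameter sigmoid per drug and line, fitted in a mixed model over all curves with the slope shared within a line.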

[2] = compound: CCn1c(-c2nonc2N)nc2cnc(Oc3cccc(NC(=O)c4ccc(OCCN5CCOCC5)cc4)c3)cc21 [GSK269962A]; details: top dose inferred
Protocol: as §1

[3] = compound: C/C=C(/C)C(=O)O[C@H]1C(C)=C2[C@H]([C@@H]1OC(=O)CCCCCCC)[C@@](C)(OC(C)=O)C[C@H](OC(=O)CCC)[C@@]1(O)[C@H]2OC(=O)[C@@]1(C)O [Thapsigargin]; details: top dose 0.512 µM; top dose inferred
Protocol: as §1

[4] = compound: COc1cc2ncnc(-n3nc(-c4ccccn4)nc3N)c2cc1OC [CP466722]; details: top dose 16 µM; top dose inferred
Protocol: as §1

[5] = compound: C[C@]1(c2nc3c(C(N)=O)cccc3[nH]2)CCCN1 [ABT-888]; details: top dose 5 µM; top dose inferred
Protocol: as §1

[6] = compound: C=CC(=O)Nc1cc(-n2c(=O)ccc3cnc4ccc(-c5cn[nH]c5)cc4c32)ccc1C [QL-X-138]; details: top dose 10.24 µM; top dose inferred
Protocol: as §1

[7] = compound: COc1nc(C)cnc1NS(=O)(=O)c1cccnc1-c1ccc(-c2nnco2)cc1 [Zibotentan]; details: top dose 20 µM; top dose inferred
Protocol: as §1

[8] = compound: COc1cc(O)c2c(c1)/C=C/C[C@H](O)[C@H](O)C(=O)/C=C\C[C@H](C)OC2=O [(5Z)-7-Oxozeaenol]; details: top dose 10 µM; top dose inferred
Protocol: as §1

[9] = compound: Cc1ccc(F)c(NC(=O)Nc2ccc(-c3cccc4[nH]nc(N)c34)cc2)c1 [ABT-869]; details: top dose 1.024 µM; top dose inferred
Protocol: as §1

[10] = compound: COc1cc(N2CCC(O)CC2)ccc1Nc1cc(Nc2ccccc2S(=O)(=O)C(C)C)c2cc[nH]c2n1 [MPS-1-IN-1]; details: top dose 20 µM; top dose inferred
Protocol: as §1

[11] = compound: Cc1cnc(-c2cnc(NCCNc3ccc(C#N)cn3)nc2-c2ccc(Cl)cc2Cl)[nH]1 [CHIR-99021]
Protocol: as §1

[12] = compound: Nc1ccn([C@@H]2O[C@H](CO)[C@@H](O)[C@@H]2O)c(=O)n1 [Cytarabine]; details: top dose 2 µM
Protocol: as §1

[13] = compound: Cc1ccc(-c2c(C(=O)CCl)n(CCCO)c3ncnc(N)c23)cc1 [CMK]; details: top dose 4 µM; top dose inferred
Protocol: as §1

[14] = top dose 2.5 µM, screen: GDSC drug entry 127
[15] = top dose 5 µM, screen: GDSC drug entry 1192
[16] = top dose 2.56 µM, screen: GDSC drug entry 154
[17] = top dose 10 µM, screen: GDSC drug entry 1241, top dose inferred

Row | Cell Line | AUC [1] | IC50 [1] | AUC [2, 14] | IC50 [2, 14] | AUC [2, 15] | IC50 [2, 15] | AUC [3] | IC50 [3] | AUC [4] | IC50 [4] | AUC [5] | IC50 [5] | AUC [6] | IC50 [6] | AUC [7] | IC50 [7] | AUC [8] | IC50 [8] | AUC [9] | IC50 [9] | AUC [10] | IC50 [10] | AUC [11, 16] | IC50 [11, 16] | AUC [11, 17] | IC50 [11, 17] | AUC [12] | IC50 [12] | AUC [13] | IC50 [13]
1 | SW684 (fibrosarcoma, adherent) | 0.964 | > 10000 nM | 0.824 | > 2500 nM | 0.938 | > 5000 nM | 0.866 | > 512 nM | 0.962 | > 16000 nM | 0.983 | > 5000 nM | 0.905 | > 10200 nM | 0.983 | > 20000 nM | 0.817 | 9280 nM | 0.982 | > 1020 nM | 0.983 | > 20000 nM | 0.914 | > 2560 nM | 0.912 | > 10000 nM | 0.955 | > 2000 nM | 0.92 | > 4000 nM
2 | SW962 (urogenital system, adherent) | 0.928 | > 10000 nM | 0.86 | > 2500 nM | 0.754 | 2070 nM | 0.355 | 11.4 nM | 0.893 | > 16000 nM | 0.968 | > 5000 nM | 0.829 | 8580 nM | 0.98 | > 20000 nM | 0.532 | 779 nM | 0.978 | > 1020 nM | 0.945 | > 20000 nM | 0.981 | > 2560 nM | 0.977 | > 10000 nM | 0.814 | 1440 nM | 0.794 | 2370 nM
3 | SW982 (soft tissue, adherent) | 0.93 | > 10000 nM | – | – | 0.536 | 393 nM | 0.195 | 3.83 nM | 0.668 | 2980 nM | 0.969 | > 5000 nM | 0.682 | 2100 nM | 0.984 | > 20000 nM | 0.225 | 95.8 nM | 0.985 | > 1020 nM | 0.931 | > 20000 nM | 0.559 | 233 nM | 0.808 | 5360 nM | 0.223 | 18.9 nM | 0.768 | 1540 nM
4 | TE-1 (oesophagus, adherent) | 0.973 | > 10000 nM | 0.971 | > 2500 nM | 0.911 | > 5000 nM | 0.36 | 11.8 nM | 0.89 | > 16000 nM | 0.982 | > 5000 nM | 0.884 | > 10200 nM | 0.982 | > 20000 nM | 0.565 | 988 nM | 0.978 | > 1020 nM | 0.979 | > 20000 nM | 0.981 | > 2560 nM | 0.934 | > 10000 nM | 0.974 | > 2000 nM | 0.917 | > 4000 nM
